# Test results: the RNAGym collection of RNA variant scans (doi:10.7554/elife.90254)
# The source gives no read counts; variants with many changes may rest on few reads.
# B1: LINE1-full (parent)
# chain: UACGUAGGUGGUUUUCCCCUGAUAGUGCUAAGGGGGCCUGGAAGUUUGGACUGGGCAGAGCUCAACACAGCGUGGCAAAGUGGCUGUGGCUAGACUGCCUCUCUGGAUUCCUCGUCACUCAGCAGGGCAUCUCUGAGAGAAAUGCC
# Variants of: B1
# Assay: self-cleavage, relative activity (ratio to wild type); higher = more cleavage; in vitro, sequencing; the parent is a self-cleaving ribozyme
row,Variant,self-cleavage
1,UACGUAGGUGGUUUUCCCCUGAUAGUGCUGAGGGGGCCUGGAAGUUUGGACUGGGCAGAGCUCAACACAGCGUGGCAAAGUGGCUGUGGCUAGACUGCCUCCCUGGAUUCCUCGUCACUCAGCAGGGCAUCUCUGUGAGAAAUGCC,0.37
2,UACGUAGGUGGUUUUCCCCUGAUAGUGCUGAGGGGGCCUGGAAGUUUGGACUGGGCAGAGCUCAACACAGCGUGGCAAAGUGGCUGUGGCUAGACUGCCUCUCCGGAUUCCUCGUCACUCAGCAGGGCAUCUCUGAGAGGAAUGCC,2.8
3,UACGUAGGUGGUUUUCCCCUGAUAGUGCUUGGGGGGCCUGGAAGUUUGGACUGGGCAGAGCUCGACACAGCGUGGCAAAGUGGCUGUGGCUAGACUGCCUCUCUGGAUACCUCGUCACUCAGCAGGGCACCUCUGAGAGAAAUGCC,0
4,UACGUAGGUGGUUUUCCCCUGAUAGUGCUUGGGGGGGCUGGAAGUUUGGACUGGGCAGAGCUCAACACAGCGUGGCAAAGUGGCUGUGGCUAGACUGCCUCUCUGGAUUCCUCGUCACUCAGCAGGGCAUCUCUGAGAGAAAUGCC,0.33
5,UACGUAGGUGGUUUUCCCCUGAUAGUGCUUAGGGGGCCUGGGAGUUUGGACUGGGCAGAGCUCAACACAGCGUGGCAAAGUGGCUGUGGCUAGGAUGCCUCUCUGGAUUCCUCGUCACUCAGCAGGGCAUCUCUGAGAGAAAUGCC,0
6,UACGUAGGUGGUUUUCCCCUGAUAGUGCUUAGGGGGCCUGGGAGUUUGGACUGGGCAGAGCUCAACACAGCGUGGCAAAGUGGCUGUGGCUAGACUGCCUCUCUGGAUUCCUCGUCACCCAGCAGGGCAUCUCUGAGAGAAAUGCC,1.53
7,UACGUAGGUGGUUUUCCCCUGAUAGUGCUUAGGGGGCCUGGGAGUUUGGACUGGGCAGAGCUCAACACAGCGUGGCAAAGUGGCUGUGGCUAGACUGCCUCUCUGGAUUCCUCGUCACUCAGCAGGGCAUCUCCGAGAGAAAUGCC,1.67
8,UACGUAGGUGGUUUUCCCCUGAUAGUGCUUAGGGGGCCUGGAGGUUUGGACUGGGCAGAGCUCAACACAGCGUGGCAAAGUGGCUGUGGCUAGACUGCCUCUCUGGAUUCCUCGUCCCUCAGCAGGGCACCUCUGUGAGAAAUGCC,2.4
9,UACGUAGGUGGUUUUCCCCUGAUAGUGCUUAGGGGGCCUGGAGGUUUGGACUGGGCAGAGCUCAACACAGCGUGACAAAGUGGCUGUGGCUAGACUGCCUCUCUGGAUUCCCCGUCACUCAGCAGGGCAUCUCUAAGAGAAAUGCC,0.35
10,UACGUAGGUGGUUUUCCCCUGAUAGUGCUUAGGGGGCCUGGAAGUUUGGGCUGGGCAGAGCACAACACAGCGUGGCAAAGUGGCUGUGGCUAGACUGCCUCUCUGGAUUCCUCGUCACUCAGCAGGGCAUCUCUGAGAGAAAUGCC,0.17
11,UACGUAGGUGGUUUUCCCCUGAUAGUGCUUAGGGGGCCUGGAAGUUUGGACUGGGCGGAGCUCAACACAGCGUGGCAAAGUGGCUGUGGCUAGACUGCCUCUCUGGAUUCCUCGUCACUCAGCAGGGCAUCUCUGAGAGGAAUGCC,0.52
12,UACGUAGGUGGUUUUCCCCUGAUAGUGCUUAGGGGGCCUGGAAGUUUGGACUGGGCAGCGCUCAACGCAGCGUGGCAAAGUGGCUGUGGCUAGACUGCCUCUCUGGAUUCCUCGUCACUCAGCUGGGCAUCUCUGAGAGAAAUGCC,0.33
13,UACGUAGGUGGUUUUCCCCUGAUAGUGCUUAGGGGGCCUGGAAGUUUGGACUGGGCAGUGCUCAACACAGCGUAGCAGAGUGGCUGUGGCUAGACUGCCUCUCUGGAUUCCUCGUCACUCAGCAGGGCAUCUCUGAGAGAAAUGCC,0.27
14,UACGUAGGUGGUUUUCCCCUGAUAGUGCUUAGGGGGCCUGGAAGUUUGGACUGGGCAGAGCUCGACACAGCGUGGCAAAGUGGCUGUGGCUAGACUGCCUCUCAGGAUUCCUCGUCACUCAGCAGGGCAUCUCUGAGAGAAAUGCC,0.15
15,UACGUAGGUGGUUUUCCCCUGAUAGUGCUUAGGGGGCCUGGAAGUUUGGACUGGGCAGAGCUCUACACAGCGUGGCAAAGUGGCUGAGGCUGGACUGCCUCUCUGGAUUCCUCGUCACUCAGCAGGGCAUCUCUGAGAGAAAUGCC,0.05
16,UACGUAGGUGGUUUUCCCCUGAUAGUGCUUAGGGGGCCUGGAAGUUUGGACUGGGCAGAGCUCAACACAGCGUGGCUAAGUGGCUGUGGCUAGACUGCCUCCCUGGAUUCCUCGUCACUCAGCAGGGCAUCUCUGAGAGAAAUGCC,0.98
17,UACGUAGGUGGUUUUCCCCUGAUAGUGCUUAGGGGGCCUGGAAGUUUGGACUGGGCAGAGCUCAACACAGCGUGGCAAAGUGGCUGUGGCUAGGCUGCCUCUCUGGAUUCCUCGUCACUCAGCAGGGCAUCUCUGAGAGAAACGCC,0.14
18,UACGUAGGUGGUUUUCCCCUGAUAGUGCUUAGGGGGCCUGGAAGUUUGGACUGGGCAGAGCUCAACACAGCGUGGCAAAGUGGCUGUGGCUAGACUGCCUCUCUGGAUUCCUCGUCACUCAGCAGGGCAUCUCUGAGUGAAGUGCC,1.36
19,UACGUAGGUGGUUUUCCCCUGAUAGUGCUUAGGGGGCCUGGAAGUUUGGACUGGGCAGAGCUCAACACAGCGUGGCAAAGUGGCUGUGGCUAGACUGCCUCUCUGGAUUCCUCGUCACUCAGCAGGGCAUCUCUGAGAGCAGUGCC,0.38
